Residue numbers refer to the chain shown, from its start. Each block holds one binder with its values, some of them ahead of it.
What was measured:
Test in all cases: cell-based or functional assay
human IL-4 = biological target: T1, human IL-4 (human, UniProt P05112 25-153)
T1 sequence (looked up): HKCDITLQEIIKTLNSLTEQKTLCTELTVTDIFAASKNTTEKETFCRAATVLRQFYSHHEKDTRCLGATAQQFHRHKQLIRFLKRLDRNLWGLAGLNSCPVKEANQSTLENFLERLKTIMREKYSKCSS

human IL-13 = human IL-13 (human, UniProt P35225 part only)
human IL-12 (p35 + p40) = biological target: T2, human IL-12 (p35 + p40) (human, UniProt P29459 23-219; P29460 23-328)
T2 sequence (looked up) 1: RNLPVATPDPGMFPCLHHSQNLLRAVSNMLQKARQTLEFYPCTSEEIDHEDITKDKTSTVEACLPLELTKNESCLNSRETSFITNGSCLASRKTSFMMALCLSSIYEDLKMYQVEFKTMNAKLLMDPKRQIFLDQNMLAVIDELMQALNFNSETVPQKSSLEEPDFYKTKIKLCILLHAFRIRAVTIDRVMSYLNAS
T2 sequence (looked up) 2: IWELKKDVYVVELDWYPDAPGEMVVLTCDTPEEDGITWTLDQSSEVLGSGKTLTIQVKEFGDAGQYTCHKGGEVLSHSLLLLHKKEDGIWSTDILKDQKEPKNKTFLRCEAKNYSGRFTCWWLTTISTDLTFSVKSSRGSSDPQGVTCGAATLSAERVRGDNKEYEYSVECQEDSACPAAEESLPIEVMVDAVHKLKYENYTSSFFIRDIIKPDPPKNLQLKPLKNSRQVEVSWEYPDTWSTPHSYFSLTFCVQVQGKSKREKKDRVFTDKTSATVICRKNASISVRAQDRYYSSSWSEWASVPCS

recombinant human IL-4 = biological target: T3, recombinant human IL-4 (human, UniProt P05112 25-153)
T3 sequence (looked up): T1 sequence (looked up)

recombinant human IL-13 = recombinant human IL-13 (human, UniProt P35225 part only)
recombinant human IL-13, sequence (P35225 35-146 limits assumed): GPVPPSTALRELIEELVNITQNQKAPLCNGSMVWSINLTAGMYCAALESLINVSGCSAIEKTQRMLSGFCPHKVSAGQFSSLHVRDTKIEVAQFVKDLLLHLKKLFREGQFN

recombinant human IL-12 = biological target: T4, recombinant human IL-12 (human, UniProt P29459 23-219; P29460 23-328)
T4 sequence (looked up) 1: T2 sequence (looked up) 1
T4 sequence (looked up) 2: T2 sequence (looked up) 2

human IL-13, sequence (P35225 35-146 limits assumed): as above

B3: IL413p40-0044 (other)
heavy: EVQLVESGGGLVQPGGSLRLSCAASGFTFSSYAMSWVRQAPGKGLEWVASISSGDTTYYPDSVKGRFTISRDNAKNSLYLQMNSLRAEDTAVYYCARNEGYYFGLTLWGQGTLVTVSSASTKGPSVFPKAPSSKSTSGGTAALGCLVKDYFPEPVTVSWNSGALTSGVHTFPAVLQSSGLYSLSSSVTVPSSSLGTQTYICNVNHKPSNTKVDKKVEPKSCDKTHTCPPCPAPEAAGAPSVFLFPPKPKDTLMISRTPEVTCVVVDVSHEDPEVKFNWYVDGVEVHNAKTKPREEQYNSTYRVVSVLTVLHQDWLNGKEYKCKVSNKALPAPIEKTISKAKGQPREPQVCTLPPSREEMTKNQVSLWCLVKGFYPSDIAVEWESNGQPENNYKTTPPVLDSDGSFFLYSKLTVDKSRWQQGNVFSCSVMHEALHNHYTQKSLSLSPGK
chain 1: [about 200 residues not written out]GGGGSEVTLRESGPALVKPTQTLTLTCTFSGFSLSNFGEGLSWIRQPPGKGLEWLAHIYWDDDKRYNPSLKSRLTISKDTSRNQVVLTMTNMDPVDTATYYCARRETVFYWYFDVWGQGTTVTVSSASTKGPSVFPEAPSSKSTSGGTAALGCLVKDYFPEPVTVSWNSGALTSGVHTFPAVLQSSGLYSLGSVVTVPSSSLGTQTYICNVNHKPSNTKVDKKVEPKSCDKTHTCPPCPAPEAAGAPSVFLFPPKPKDTLMISRTPEVTCVVVDVSHEDPEVKFNWYVDGVEVHNAKTKPREEQYNSTYRVVSVLTVLHQDWLNGKEYKCKVSNKALPAPIEKTISKAKGQPREPQVYTLPPCREEMTKNQVSLSCAVKGFYPSDIAVEWESNGQPENNYKTTPPVLDSDGSFFLVSKLTVDKSRWQQGNVFSCSVMHEALHNHYTQKSLSLSPGK
light 1: DIQMTQSPSSLSASVGDRVTITCKASESVDHFGWSLVHWYQQKPGKAPKLLIYRASNLESGVPSRFSGSGSGTDFTLTISSLQPEDFATYYCQQSNEDPWTFGGGTKVEIKRTVAAPSVFIFPPSDEQLKSGTASVSCLLNNFYPREAKVQWKVDNALQSGNSQESVTEQDSKDSTYSLDSTLTLSKADYEKHKVYACEVTHQGLSSPVTKSFNRGEC
light 2: B3 light 1 with E27Q, H31E, F32D, W34D, L36Y, V37M, H38N, R54A, W100P, D180K
chain 2: EVQLVQSGAEVKKPGESLKISCKGSGYSFTTYWLGWVRQMPGKGLDWIGIMSPVDSDIRYSPSFQGQVTMSVDKSITTAYLQWNSLKASDTAMYYCARRRPGQGYFDFWGQGTLVTVSSASTKGPSVFPLAPSSKSTSGGTAALGCLVKDYFPEPVTVSWNSGALTSGVHTFPAVLQSSGLYSLSSVVTVPSSSLGTQTYICNVNHKPSNTKVDKKVEPKSC
a-hIL-4 bioassay IC50, pM) (human IL-4): 8.11 pM
a-hIL-13 bioassay (IC50, pM) (human IL-13): 9.14 pM
anti-IL12 bioassay IC50 (human IL-12 (p35 + p40)): 3.03 nM

B4: IL413p40-0648 (other)
heavy: B3 heavy with S53T, L107Q, Q110R, M429L, N435S
chain 1: [about 200 residues not written out]GGGGSEVTLRESGPALVKPTQTLTLTCTFSGFSLSNFGEGLSWIRQPPGKGLEWLAHIYWDDDKRYSTSLKTRLTISKDTSRNQVVLTMTNMDPVDTATYYCARRETVFYWYFDVWGQGTTVTVSSASTKGPSVFPEAPSSKSTSGGTAALGCLVKDYFPEPVTVSWNSGALTSGVHTFPAVLQSSGLYSLGSVVTVPSSSLGTQTYICNVNHKPSNTKVDKKVEPKSCDKTHTCPPCPAPEAAGAPSVFLFPPKPKDTLMISRTPEVTCVVVDVSHEDPEVKFNWYVDGVEVHNAKTKPREEQYNSTYRVVSVLTVLHQDWLNGKEYKCKVSNKALPAPIEKTISKAKGQPREPQVYTLPPCREEMTKNQVSLSCAVKGFYPSDIAVEWESNGQPENNYKTTPPVLDSDGSFFLVSKLTVDKSRWQQGNVFSCSVLHEALHSHYTQKSLSLSPGK
light 1: B3 light 1 with K24R, S56D, N57S, S60T
light 2: DIQMTQSPSSLSASVGDRVTITCRASQSVDEEGDSYMNWYQQKPGKAPKLLIYAASNLESGVPSRFSGSGSGTDFTLTISSLQPEDFATYYCQQSHKDPPTFGGGTKVEIKRTVAAPSVFIFPPSDEQLKSGTASVSCLLNNFYPREAKVQWKVDNALQSGNSQESVTEQDSKDSTYSLKSTLTLSKADYEKHKVYACEVTHQGLSSPVTKSFNRGEC
chain 2: B3 chain 2
a-hIL-4 bioassay IC50, pM) (human IL-4): 26.4 pM
a-hIL-13 bioassay (IC50, pM) (human IL-13): 18.7 pM

Now from value to binder:

a-hIL-4 bioassay IC50, pM) (human IL-4): 5.1 pM
a-hIL-13 bioassay (IC50, pM) (human IL-13): 15.1 pM
anti-IL12 bioassay IC50 (human IL-12 (p35 + p40)): 2.6 nM
B1: IL413p40-0043 (other)
heavy: EVTLRESGPALVKPTQTLTLTCTFSGFSLSNFGEGLSWIRQPPGKGLEWLAHIYWDDDKRYNPSLKSRLTISKDTSRNQVVLTMTNMDPVDTATYYCARRETVFYWYFDVWGQGTTVTVSSASTKGPSVFPEAPSSKSTSGGTAALGCLVKDYFPEPVTVSWNSGALTSGVHTFPAVLQSSGLYSLGSVVTVPSSSLGTQTYICNVNHKPSNTKVDKKVEPKSCDKTHTCPPCPAPEAAGAPSVFLFPPKPKDTLMISRTPEVTCVVVDVSHEDPEVKFNWYVDGVEVHNAKTKPREEQYNSTYRVVSVLTVLHQDWLNGKEYKCKVSNKALPAPIEKTISKAKGQPREPQVYTLPPCREEMTKNQVSLSCAVKGFYPSDIAVEWESNGQPENNYKTTPPVLDSDGSFFLVSKLTVDKSRWQQGNVFSCSVMHEALHNHYTQKSLSLSPGK
chain 1: [about 200 residues not written out]GGGGSEVQLVESGGGLVQPGGSLRLSCAASGFTFSSYAMSWVRQAPGKGLEWVASISSGDTTYYPDSVKGRFTISRDNAKNSLYLQMNSLRAEDTAVYYCARNEGYYFGLTLWGQGTLVTVSSASTKGPSVFPKAPSSKSTSGGTAALGCLVKDYFPEPVTVSWNSGALTSGVHTFPAVLQSSGLYSLSSSVTVPSSSLGTQTYICNVNHKPSNTKVDKKVEPKSCDKTHTCPPCPAPEAAGAPSVFLFPPKPKDTLMISRTPEVTCVVVDVSHEDPEVKFNWYVDGVEVHNAKTKPREEQYNSTYRVVSVLTVLHQDWLNGKEYKCKVSNKALPAPIEKTISKAKGQPREPQVCTLPPSREEMTKNQVSLWCLVKGFYPSDIAVEWESNGQPENNYKTTPPVLDSDGSFFLYSKLTVDKSRWQQGNVFSCSVMHEALHNHYTQKSLSLSPGK
light 1: B4 light 2 with R24K, E32D, H96N, K97E
light 2: B3 light 1
chain 2: B3 chain 2

IL-4 induced CD23 upregulation (IC50), Tri-Fab-Fc (recombinant human IL-4): 0.0051 nM
IL-13 induced CD23 upregulation (IC50), Tri-Fab-Fc (recombinant human IL-13): 0.0151 nM
IL-12 induced STAT4 phosphorylation (IC50), Tri-Fab-Fc (recombinant human IL-12): 2.61 nM
B2: IL413p40-0043 (other)
heavy: B1 heavy
chain 1: [about 200 residues not written out]GGGGSEVQLVESGGGLVQPGGSLRLSCAASGFTFSSYAMSWVRQAPGKGLEWVASISSGDTTYYPDSVKGRFTISRDNAKNSLYLQMNSLRAEDTAVYYCARNEGYYFGLTLWGQGTLVTVSSASTKGPSVFPKAPSSKSTSGGTAALGCLVKDYFPEPVTVSWNSGALTSGVHTFPAVLQSSGLYSLSSSVTVPSSSLGTQTYICNVNHKPSNTKVDKKVEPKSCDKTHTCPPCPAPEAAGAPSVFLFPPKPKDTLMISRTPEVTCVVVDVSHEDPEVKFNWYVDGVEVHNAKTKPREEQYNSTYRVVSVLTVLHQDWLNGKEYKCKVSNKALPAPIEKTISKAKGQPREPQVCTLPPSREEMTKNQVSLWCLVKGFYPSDIAVEWESNGQPENNYKTTPPVLDSDGSFFLYSKLTVDKSRWQQGNVFSCSVMHEALHNHYTQKSLSLSPGK
light 1: B4 light 2 with R24K, E32D, H96N, K97E
light 2: B3 light 1
chain 2: B3 chain 2

Source: patent US20240117030A1 (Pfizer, published 2024)
